Some of the results follow. At the low end of the ranking the order means little.

The target in the assay is SIX1 homeodomain (reference allele) (UniProt Q15475). Description: universal protein binding microarray. The settings on record: Universal all-10-mer PBM (8x60K, AMADID 030236), 300 nM GST-tagged protein, Alexa Fluor 488 anti-GST; buffer, salt, pH and temperature not stated; high values mean tight binding; most listed sequences are background and not binding sites; double strand, one strand shown.
With AAGCGACG, the binding signal was -0.304 E-score.
The same measure for ACACCGCA: 0.351 E-score.
As for CCAGCCTA, the figure is 0.034 E-score.
AAGAGCCG: the binding signal is -0.0656 E-score.
As for ACCGCCTG, the figure is 0.232 E-score; as for CTGACCGC, -0.181 E-score.
As for CTAGCAGC, the figure is -0.247 E-score; as for CCTCCACC, -0.111 E-score.
The same measure for GCGCAGGA: -0.0736 E-score; for ATTCGGTG: 0.105 E-score.
Regarding CTCCGTTA, the binding signal is -0.2 E-score.
The same measure for GATCCAAA: 0.207 E-score.
The same measure for GGATACAA: 0.354 E-score; for GGTAAGAC: 0.0152 E-score.
The same measure for TATACCAA: 0.347 E-score.
In the case of GTTACGTA, the binding signal is -0.0357 E-score.
The same measure for GGGCGCAC: -0.215 E-score.
The same measure for GATACGGA: 0.455 E-score.
As to GCTTCACC, the binding signal is -0.0697 E-score.
As for ACCAGGTG, the figure is -0.058 E-score; as for CCGTAGTA, 0.016 E-score.
As for AGAACTTC, the figure is -0.269 E-score; as for AGGAATTC, -0.216 E-score.
The same measure for ATCCCAAC: 0.189 E-score; for TTACTAAA: -0.0326 E-score; for CCACGGCA: -0.0497 E-score.
In the case of TCTCCACA, the binding signal worked out at 0.0349 E-score.
As for AGCGTGAA, the figure is -0.19 E-score; as for CTGCTAAG, -0.116 E-score.
The same measure for AGCTCAAC: -0.0317 E-score; for GATTTCCA: -0.209 E-score; for AACCGTTG: -0.2 E-score.
The same measure for TAGTGATA: 0.415 E-score; for CGGGGAAG: 0.0699 E-score.
For CTTATACA, the binding signal was -0.0862 E-score.
As for AACATATC, the figure is 0.378 E-score.
With AGGACCCT, the binding signal is -0.208 E-score.
The same measure for CGGTTGAG: -0.0062 E-score.
As for AGATAACC, the figure is 0.0384 E-score.
As for ATGATGAA, the figure is -0.0389 E-score; as for CAACACTG, -0.231 E-score.
For CCACTAGG, the binding signal is -0.212 E-score.
The same measure for CGTCGAAG: -0.143 E-score; for AACACCTG: 0.267 E-score; for ATTGAATC: -0.067 E-score.
The same measure for AGTACTTC: -0.174 E-score.
Regarding GTATTGAA, the binding signal was 0.213 E-score.
With ACTAAATA, the binding signal is 0.115 E-score.
AATCTGAA: the binding signal is -0.108 E-score.
The same measure for ACCTAAGC: 0.108 E-score.
The same measure for AAGCCATC: 0.00588 E-score; for GCCCCCCA: -0.183 E-score; for AGGCTCAT: 0.231 E-score.
The same measure for TTAGTAAA: -0.0186 E-score; for ACTTATGC: -0.127 E-score.
Take GGGCAAGA: the binding signal came out at 0.0833 E-score.
For CTAGCGTC, the binding signal was -0.0267 E-score.
The same measure for ACTCTTCC: -0.205 E-score.
The same measure for GCCCGCCC: -0.139 E-score.
The same measure for AGTTCCGA: 0.0514 E-score.
Consider CGCGATCA, for which the binding signal is 0.272 E-score.
The same measure for CCATCGAC: -0.252 E-score; for ATGCAGCC: -0.038 E-score; for GCGTAAAC: -0.145 E-score.
As for AAACCCGT, the figure is -0.0897 E-score; as for ACAACCGA, -0.0566 E-score.
As for ATCTGAGA, the figure is 0.292 E-score; as for AGAGGTTC, -0.00602 E-score; as for AAGAGGCA, -0.126 E-score.
As to TGGAAAAA, the binding signal was -0.0229 E-score.
As to ACTGTAGC, the binding signal is -0.0697 E-score.
The same measure for AAAATATG: -0.0067 E-score; for ATAAGTAA: -0.0603 E-score; for ATCATTTA: 0.193 E-score.
The same measure for CAATAATA: 0.223 E-score; for GCCGTGAA: -0.227 E-score.
As for TGATAAAA, the figure is -0.0775 E-score; as for CTCATGTC, 0.0335 E-score; as for CTGACGAA, -0.123 E-score.
In the case of GTGGGCGA, the binding signal stood at 0.00457 E-score.
The same measure for AGGGCACG: -0.0732 E-score.
The same measure for ATAACGTC: 0.126 E-score; for CTATTACC: 0.027 E-score; for CCACGTCA: -0.158 E-score.
The same measure for ACTCCGAA: -0.0841 E-score; for CCGTCGAA: -0.148 E-score; for AGAAGAGC: -0.165 E-score.
As for AAGTAAAA, the binding signal is -0.24 E-score.
In the case of AACGAGGG, the binding signal was -0.0678 E-score.
The same measure for CCCTCGCG: -0.0319 E-score; for AAGTTACG: -0.0423 E-score.
The same measure for CATTTCTC: -0.205 E-score.
CGACGAGA: the binding signal was -0.173 E-score.
CGTAGCCA: the binding signal was -0.0417 E-score.
As for CCCTTAGG, the figure is -0.0538 E-score; as for AATTAAGA, -0.146 E-score; as for CGTCGCGC, -0.0395 E-score.
The same measure for CGAGAACG: -0.203 E-score.
As for CAACGGAA, the figure is -0.158 E-score.
Consider ATAACGCC, for which the binding signal is -0.157 E-score.
Take AATGCCTC: the binding signal was -0.143 E-score.
The same measure for ACGAACAG: -0.0368 E-score; for ATGCTGTA: -0.0886 E-score; for CCCGTGAG: -0.0774 E-score.
Take ACCACCGA: the binding signal was 0.164 E-score.
For the sequence TACGTATA, the binding signal was determined as 0.272 E-score.
The same measure for ACGGACCG: -0.268 E-score.
The same measure for GTCCTATA: 0.0273 E-score; for CTTTTGCC: 0.00717 E-score.
As for CCCTTCTC, the figure is 0.274 E-score; as for CCGTAGTC, -0.105 E-score.
AGCACTTG: the binding signal is -0.302 E-score.
As for CCTATGCC, the figure is -0.201 E-score; as for AGCCTGAC, -0.253 E-score.
As for CCTGCCTC, the binding signal was -0.21 E-score.
As for GCTTTTGA, the figure is -0.167 E-score; as for ATGACCAC, -0.248 E-score.
The same measure for ATAACAAA: -0.208 E-score.
As for CGGAGCCC, the figure is -0.247 E-score; as for ACTAAGTC, -0.217 E-score; as for CTCGCCCA, 0.0455 E-score.
AATAAAGA: the binding signal came to 0.0192 E-score.
As for GCGACGAA, the figure is -0.19 E-score; as for GGCGATCA, 0.338 E-score; as for CTGTCCAC, -0.247 E-score.
As for AATGTCGA, the figure is -0.276 E-score; as for CACAAGCA, -0.225 E-score.
Consider CTAGAGTC, for which the binding signal was -0.214 E-score.
As for CTGATCGA, the figure is 0.0295 E-score; as for AGTGGTAG, 0.0831 E-score.
For the sequence GAGGACAA, the binding signal was -0.207 E-score.
The same measure for GGCGCTGA: -0.144 E-score.
As for ACTTCGAG, the figure is -0.212 E-score.
The same measure for GTTGGGAA: -0.164 E-score; for GAGTTCCA: -0.0689 E-score; for GGTTAAGA: -0.0563 E-score.
Consider CATTCCGA, for which the binding signal is 0.00948 E-score.
The same measure for CCGGTGAC: -0.0227 E-score; for AGAATTTG: 0.0245 E-score; for CCCCCCCG: 0.0652 E-score.
As for CCCCGCGA, the binding signal came to 0.229 E-score.
Take GGGTGCAC: the binding signal was -0.0522 E-score.
The same measure for GATACTCC: 0.45 E-score; for GGTGGTAC: -0.0698 E-score; for GCAGGCCA: -0.0447 E-score.
The same measure for GGTCTCAC: 0.203 E-score; for GCAATTAA: -0.156 E-score; for CTTATCCC: 0.235 E-score.
The same measure for ATTGAAAG: -0.175 E-score; for CGCTGAAA: -0.286 E-score.
For the sequence ACGTACAA, the binding signal was -0.232 E-score.
As for ACGCGTAC, the figure is -0.206 E-score; as for AGGGGTAA, 0.0876 E-score.
As for CCTCAAAA, the figure is -0.156 E-score; as for CATGGTAA, -0.024 E-score; as for CGCATGTA, 0.0569 E-score.
Consider GTCGCCGA, for which the binding signal is -0.0221 E-score.
As for GAGCATCA, the figure is -0.0944 E-score.
Consider ACTGAGTC, for which the binding signal was determined as 0.00613 E-score.
In the case of ATGAATCA, the binding signal is -0.0867 E-score.
As for AAATCATA, the figure is -0.0187 E-score; as for ATTCAAAC, -0.0635 E-score.
The same measure for AACTTAGT: -0.148 E-score.
AGGGTTCC: the binding signal came out at 0.0139 E-score.
The same measure for AGGATGTG: 0.0034 E-score.
The same measure for ACATTTAG: -0.146 E-score; for CAGATGTA: 0.0903 E-score; for ACTATATA: 0.247 E-score.
The same measure for ATAAGGGC: -0.0133 E-score; for TGCGGCCA: -0.28 E-score; for GATGCGGC: -0.112 E-score.
Turning to AGGGGCCG, the binding signal was -0.238 E-score.

Values taken from paper PMC10668032.
